Measured values published in the supplement of paper PMC10338343.
± gives the standard deviation. The entries are a selection whose mix differs from that of the whole data set.

test system: MIWI (PIWIL1) piRISC loaded with piRNA #1 (30 nt); test: pre-steady-state target cleavage rate (min^-1); MIWI and MILI are mouse PIWI proteins and EfPiwi is from a freshwater sponge; tags in brackets are library labels; higher = faster piRNA-guided slicing of the target; details: guide: piRNA #1 5'p-UGAGGUAGUAGGUUGUAUAGUAUCCAGAGG; auxiliary factor: 500 nM mouse GTSF1
In short: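 A burst-and-steady-state fit was used to obtain the pre-steady-state cleavage rate. The input data were sequencing reads of uncleaved targets, normalised to depth and to weakly complementary targets, from a […] transcribed, DNA-blocked target RNA library mixed with 1 nM active affinity-purified piRISC holding one synthetic guide, with or without 500 nM GTSF1 partner protein, in HEPES–potassium acetate buffer at 33 °C for 0–8 or 0–960 min. Three trials were pooled and k3 was capped at 0.0001 min^-1.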
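Further: 1 nM active piRISC with 0.1 nM target library at 33 °C single turnover.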

Row | Sequence | pre-steady-state target cleavage rate
1 | GCUCUGGAUACUAACAACCUACUACCUCA | 1.5 ± 0.1
2 | CCUCUGGAUACUAUACAUCCUACAACCUCA | 1.35 ± 0.11
3 | GGAGACGAUACAAUACAACCUACUACCACA | 1.08 ± 0.081
4 | GGAGUGGAUACUCUACAACCUACUACCUCA | 1.6 ± 0.096
5 | GGAGACGAUACAAUACAACCUUCUACCUCA | 0.453 ± 0.033
6 | GGAGUGGAUACUAUACAACCUACAUCCUCA | 0.0216 ± 0.0041
7 | GGAGACCAUAGUAAACAACCUACUACCUCA | 0.137 ± 0.032
8 | GGAGACCUUAGUAUACUACCUACUACCUCA | 0.0222 ± 0.0051
9 | GGAGACCAUACUAUACAACCUUCUACCUCA | 0.491 ± 0.031
10 | GGAGACCUUAGUAUACAACCUACUACCUCA | 0.627 ± 0.066
11 | GCUCUGCAUACUAUACAACCAACUACCUCA | 0.145 ± 0.015
12 | GCUCUGGAUACUAUACAAGCAACUACCUCA | 0.0337 ± 0.0066
13 | CCUCUGGAUACUAUACAACCUACUAGGUCA | 0.095 ± 0.02
14 | GGAGACCUAUGUAUACAACCCACUACCUCA | 0.0425 ± 0.0067
15 | GGACUGGAAUGUAUACAACCUACUACCUCA | 0.388 ± 0.063
16 | GGAGACCAUACUAUACAACCUACUAACCUCA | 1.26 ± 0.075
17 | GGAGUGGAUAGUAUACAACCUACUACCUGA | 0.164 ± 0.036
18 | GGAGACCUUACUUUACUACCUACUACCUCA | 0.0816 ± 0.01
19 | GGAGUGGAUACUAUACAACCUACUACCUGCA | 0.549 ± 0.049
20 | GCUCUGGAUACUAUACAAACUACUACCUCA | 1.11 ± 0.048

Row | Sequence | pre-steady-state target cleavage rate
21 | GGAGACGAUACUAAACAACCUACAACCUCA | 0.692 ± 0.057
22 | GGAGAGGUUACUAUACAACCUACUACCUCA | 1.49 ± 0.07
23 | GGAGAGGAUACUAUACUACCUACUAGCUCA | 0.349 ± 0.035
24 | GGAGACCUAUCUAUACAACCUACUACCCUCA | 0.661 ± 0.06
25 | GGAGACCUAACUAUACAACCUACUACUCA | 0.334 ± 0.042
26 | GGAGACCUAUGAUAUGUUGCACUACCUCA | 0.003 ± 0.0019
27 | CCUCUGGAUACUAUACAACCUACAACCUGA | 0.543 ± 0.1
28 | GGAGACGAUAGCUAUACAACCUACUACCUCA | 0.785 ± 0.061
29 | GGUCUGGAAACUAUAGAACCUACUACCUCA | 1.2 ± 0.077
30 | GGAGACCUAUCUUUACAACCUACUUCCUCA | 0.0134 ± 0.0045
31 | GGAGUGGAUUCUAUUCAACCUACUACCUCA | 1.43 ± 0.094
32 | GGAGACCUAACUAUACAACCUACUAUCUCA | 0.393 ± 0.052
33 | GGAGACCAUACUAUACUACCUUCUACCUCA | 0.15 ± 0.016
34 | GGAGACCAUACUAUACAACCUACUAUCCUCA | 1.47 ± 0.075
35 | GGACUCGAUACUAUACUACCUACUACCUCA | 1.3 ± 0.11
36 | GGAGAGGAUACUAGACAACCUACUACCUCA | 0.565 ± 0.037
37 | GGUCUGGAUACUAUACAACCUACUACCACA | 0.749 ± 0.058
38 | GGAGUGGAUAGCUAUACAACCUACUACCUCA | 0.695 ± 0.044
39 | GGACUGGAAUACUAUACAACCUACUACCUCA | 1.62 ± 0.12
40 | GGAGACCAUACUAUACUACCUACUACGUCA | 0.517 ± 0.032
